According to PMC4336329 (PLoS ONE, 2015):
Among all 310,000 compounds or so, about 14,000 (4.5%) showed an effect of 50% or more. Effects have a minus sign here. This is one part of the list.

The compounds below were run against human ether-à-go-go-related gene (hERG) potassium channel (human, UniProt Q12809) (assay: primary screen, population patch clamp on CHO cells stably expressing hERG).
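Further: peak tail current of the secondary pulse compared with the same well before compound.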

Chain of human ether-à-go-go-related gene (hERG) potassium channel (Q12809 whole entry, looked up): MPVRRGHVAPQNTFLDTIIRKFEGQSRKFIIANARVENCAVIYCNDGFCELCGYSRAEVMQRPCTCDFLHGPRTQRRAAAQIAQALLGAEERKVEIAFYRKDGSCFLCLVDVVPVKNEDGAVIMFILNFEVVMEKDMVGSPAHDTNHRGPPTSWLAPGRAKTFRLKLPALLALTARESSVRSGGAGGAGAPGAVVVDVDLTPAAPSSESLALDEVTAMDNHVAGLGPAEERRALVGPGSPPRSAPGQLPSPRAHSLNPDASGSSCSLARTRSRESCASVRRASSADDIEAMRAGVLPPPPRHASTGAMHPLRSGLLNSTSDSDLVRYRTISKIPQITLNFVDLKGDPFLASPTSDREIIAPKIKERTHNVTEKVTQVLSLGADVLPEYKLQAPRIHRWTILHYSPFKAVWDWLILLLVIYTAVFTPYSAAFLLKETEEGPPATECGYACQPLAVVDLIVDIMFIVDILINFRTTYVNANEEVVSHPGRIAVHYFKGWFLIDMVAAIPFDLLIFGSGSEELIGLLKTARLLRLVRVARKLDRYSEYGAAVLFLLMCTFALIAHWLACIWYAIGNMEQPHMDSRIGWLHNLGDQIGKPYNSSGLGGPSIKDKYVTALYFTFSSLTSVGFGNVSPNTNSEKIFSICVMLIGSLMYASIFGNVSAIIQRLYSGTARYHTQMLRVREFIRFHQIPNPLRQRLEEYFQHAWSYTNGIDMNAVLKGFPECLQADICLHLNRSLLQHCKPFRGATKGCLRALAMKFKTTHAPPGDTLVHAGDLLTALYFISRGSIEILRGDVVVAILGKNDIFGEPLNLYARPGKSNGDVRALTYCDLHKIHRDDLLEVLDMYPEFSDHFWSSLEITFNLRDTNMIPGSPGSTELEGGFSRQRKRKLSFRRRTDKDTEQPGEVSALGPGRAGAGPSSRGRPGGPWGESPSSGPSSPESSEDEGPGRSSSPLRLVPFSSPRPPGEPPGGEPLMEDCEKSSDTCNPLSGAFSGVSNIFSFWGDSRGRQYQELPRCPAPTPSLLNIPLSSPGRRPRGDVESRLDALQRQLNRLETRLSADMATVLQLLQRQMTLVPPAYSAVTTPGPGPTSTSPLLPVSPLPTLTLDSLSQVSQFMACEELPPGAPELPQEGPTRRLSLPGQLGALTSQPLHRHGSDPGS

Row | SMILES | hERG current change (%, negative = inhibition) at 10uM [%]
1 | COc1cc2sc(C)nc2c2ccccc12 | 12.5
2 | COc1cc(C)ccc1OCc1cc(C(=O)N2C[C@H]3CC[C@H]2C3)no1 | -1.23
3 | CC1CC(OCC(O)C[N+]2(C)CCOCC2)CC(C)(C)C1.[I-] (stereo not shown) | 22.6
4 | CC(=O)c1ccc(NC(=O)CCn2c(=O)oc3ccccc32)cc1 | 12.9
5 | C=CCn1c(SCC(=O)NC2(C#N)CCCCC2)nnc1-c1ccncc1 | 13.8
6 | COc1ccc(NC(=O)CSc2nnnn2Cc2ccccc2)cc1 | 12.2
7 | CCOc1ccc(NC(=O)CN(C)C(=O)c2cc([N+](=O)[O-])ccc2N2CCCCC2)cc1OCC | -43.9
8 | O=C(NCc1ccccn1)C1CCN(S(=O)(=O)N2CCCCC2)CC1 | 8.48
9 | Cc1nc2cc(C(=O)O)ccc2s1 | 5.41
10 | Cc1ccc(-c2nc(CSCC(=O)N3CCOCC3)c(C)o2)cc1 | -7.1
11 | COc1cc(C(C)=O)ccc1OCC(O)CN1CCN(c2cc(C)cc(C)c2)CC1 (stereo not shown) | -56.2
12 | COCCC(=O)N1CCC(Oc2ccc(C(=O)NCc3ncc(C)[nH]3)cc2)CC1 | 7.21
13 | C=CCn1c(CCSCc2ccccc2)n[nH]c1=S | -3.91
14 | COc1cccc(N2CCN(C(=O)/C=C/c3ccco3)CC2)c1 | -29.5
15 | CCOC(=O)CNC(=O)C1COc2ccccc2O1 (stereo not shown) | -1.4
16 | CCOC(=O)CCSc1nc(C(C)(C)C)cc(C(F)(F)F)c1C#N | 7.89
17 | COCCn1c(NCc2ccccc2)nc2c1c(=O)[nH]c(=O)n2C | -8.43
18 | COc1ccc(NC(=O)COC(=O)c2ccc(Br)o2)cc1OC | 13.6
19 | O=C(O)c1ccc(Cl)c(S(=O)(=O)Nc2ccc3[nH]c(=O)[nH]c3c2)c1 | 10.1
20 | CCOC(=O)CSc1nc2cc(S(=O)(=O)Nc3ccccc3OC)ccc2o1 | -2.06
21 | CCOCCCn1c(=S)[nH]c2cc(C(=O)N3CCN(C4CCCCC4)CC3)ccc2c1=O | -21.8
22 | O=C(Cc1ccccc1)NCc1ccccn1 | 11

Row | SMILES | hERG current change (%, negative = inhibition) at 10uM [%]
23 | CCC(C)NC(=O)c1ccc(COc2ccccc2Cl)cc1 (stereo not shown) | -22.3
24 | N#C/C(=C\c1ccc(Oc2ccc(C(F)(F)F)cc2[N+](=O)[O-])cc1)c1nc2ccccc2[nH]1 | 11.6
25 | COC(=O)c1ccc(NC(=O)c2nc(S(=O)(=O)Cc3cccc(C)c3)ncc2Cl)cc1 | 6.47
26 | O=C(O)CC(SCc1ccc(C(=O)O)o1)C(=O)O (stereo not shown) | 6.94
27 | Cc1coc2c1c(C)cc1oc(=O)c(CC(=O)NCC(=O)NCC(=O)O)c(C)c12 | 13.9
28 | CN(C)c1ccc(NC(=O)/C=C/c2ccccc2Cl)cc1 | 7.03
29 | N#Cc1ccc(Oc2ccc(C(F)(F)F)cc2NC(=O)c2ccc(F)cc2)cc1 | -70.2
30 | COc1cccc(N2C(N)=NC(N)=NC2(C)C)c1.Cl | 12.6
31 | C/C(=N\NC(=O)c1ccncc1)c1cccs1 | 19.6
32 | CCOc1ccc(N(CC)C(=O)COc2cc(=O)n(C)c3ccccc23)cc1 | -38.5
33 | N#Cc1nnn2c1nc(N)c1c(F)cccc12 | 21.5
34 | O=C(NCCC(=O)N1CCCCC1)c1ccccc1Cl | -14.2
35 | COc1ccc(NC(=S)NCc2ccc(Cl)cc2)c(OC)c1 | 12
36 | CC1Cc2ccccc2N1C(=O)CO/N=C/c1ccccc1OC(F)F (stereo not shown) | -3.45
37 | COCCNC(=S)NNc1cccc(C(=O)O)c1 | -4.05
38 | O=C(N/N=C/c1cccn1-c1ccc([N+](=O)[O-])cc1)C(O)c1ccccc1 (stereo not shown) | -21.8
39 | CCN(CC)C(=O)C(=O)c1cn(CCOc2ccccc2)c2ccccc12 | -2.44
40 | CCNC(=S)Nc1ccc2ncoc2c1 | 13
41 | Cc1cccc(C(O)(C(=O)NNc2ccc3ccccc3[nH+]2)c2cccc(C)c2)c1.[Cl-] | 5.65
42 | CC1=CC2=NC(=O)/C(=C\c3ccc(OC(=O)c4ccco4)cc3)C(=N)N2O1 | 10.1
43 | Cc1noc(C)c1C(=O)Nc1cccc2ncccc12 | 11.2
44 | Cc1cc(C)nc(SCc2cc(=O)c(OC(=O)c3ccc(S(=O)(=O)N4CCCC4)cc3)co2)n1 | -8.73

Row | SMILES | hERG current change (%, negative = inhibition) at 10uM [%]
45 | CCCNc1nc(C)cc(-c2cc(C(=O)NCc3ccccc3)on2)n1 | 6.55
46 | CCCC(=O)Nc1ccc(N2CCN(CC)CC2)c(Cl)c1.Cl | -47.8
47 | CCOC(=O)c1[nH]c2ccc(OC)cc2c1NC(=O)c1ccc(OC)c(OC)c1 | -21.1
48 | NC(=O)CNc1ncc(C(F)(F)F)cc1Cl | 18.1
49 | Cc1cccc(C)c1-n1c(SCC(=O)N2CC(=O)Nc3ccccc32)nc2ccccc2c1=O | -0.373
50 | C[C@@H](C(=O)Nc1ccc2ccccc2c1)[C@@H]1C[C@@]1(C)[C@@H](NC(=O)c1cnccn1)c1ccccc1 | 0.06
51 | COc1cccc(/C=C/C(=O)OCC(=O)Nc2ccccc2Sc2ccccc2)c1 | 11.7
52 | CCCOC(=O)CSc1nnc(-c2ccc(Cl)cc2Cl)o1 | -1.25
53 | COc1cccc(CN2CCCC(C(=O)c3ccccc3SC)C2)c1O (stereo not shown) | -77.5
54 | COc1cccc(N2CCN(C(=O)c3cc4cc(Cl)ccc4[nH]3)CC2)c1 | 15.9
55 | COCCc1nc2ccc(C(=O)N(C)Cc3cccc(-n4nc(C)cc4C)c3)cc2o1 | -32.3
56 | Cn1c(=O)[nH]c(=O)c2c1nc(NCc1ccco1)n2Cc1ccccc1Cl | 1.72
57 | COC(=O)c1[nH]c(C)c(/C(O)=C2\C(=O)C(=O)N(CCN(C)C)C2c2ccccc2OC)c1C (stereo not shown) | 15.3
58 | Cc1cccc(NC(=O)C2CCN(S(C)(=O)=O)CC2)c1C | -1.7
59 | O=C(Nc1ccccc1N1CCCC1)c1ccc2ccccc2c1 | 8.73
60 | CNc1nc(-c2ccccc2)nc(-c2ccc(OC)cc2)c1C#N | 1.2
61 | O=c1[nH]c2c(s1)C(c1ccc(O)cc1)C1C3CCC(C3)C1S2 (stereo not shown) | 9.32
62 | COc1ccc(/C=N/NC(=O)C2(O)c3ccccc3-c3ccccc32)cc1 | 14.8
63 | CC1CCCC(NC(=O)CCNC(=O)c2ccc([N+](=O)[O-])cc2)C1C (stereo not shown) | -44.3
64 | Cc1c(C(=O)NC2CC2)oc2ccc(S(=O)(=O)N3CCCCCC3)cc12 | -41.4
65 | Cc1cc(OC(C(=O)O)c2ccccc2)c2c(C)c(Cc3ccccc3)c(=O)oc2c1 (stereo not shown) | -2.59
66 | COc1cc(C(C)=O)ccc1OC(=O)CN1C(=O)c2ccccc2C1=O | 14.1

Row | SMILES | hERG current change (%, negative = inhibition) at 10uM [%]
67 | C(#Cc1ccccc1)Cn1nnc2ccccc21 | -10.3
68 | CCCn1c(Nc2ccc(Cl)cc2)nc2ccccc21 | -0.446
69 | O=C(/C=C/c1ccccc1)NCCc1nc2ccccc2[nH]1 | -46.9
70 | O=C(O)CCC(NS(=O)(=O)c1ccc(-c2ccccc2)cc1)C(=O)O (stereo not shown) | 12.6
71 | O=C(NN1CCOCC1)c1cc(-c2cccc(Cl)c2)nc2ccccc12 | -20.1
72 | O=C(NCc1ccccc1)c1ccc(CS(=O)Cc2ccc(Cl)cc2)o1 (stereo not shown) | -62.5
73 | C(#CCN1CCOCC1)COC/C=C/c1ccccc1.Cl | 6.94
74 | N#C/C(=C/c1cccs1)c1nc2ccccc2[nH]1 | 14.5
75 | O=C(O)CCn1cc(/C=C/C(=O)c2ccc(Cl)cc2)c(-c2cccc(Br)c2)n1 | 8.3
76 | CCc1ccccc1Nc1nc(N)nc(COC(=O)CCS(=O)(=O)c2ccccc2)n1 | -10.5
77 | Cc1cc2c(c(=O)n1CC1CCCO1)C(c1ccc3c(c1)OCO3)C(C#N)=C(N)O2 (stereo not shown) | -6.18
78 | O=NN(CCc1ccncc1)c1ccc(OCc2ccccc2)cc1 | -65.2
79 | COc1ccc(S(=O)(=O)NCCCN2CCCC2=O)c(OC)c1 | 10.5
80 | COC(=O)C1(c2ccccc2)NC(c2cccs2)C2C(=O)N(C)C(=O)C21 (stereo not shown) | -1.15
81 | Cc1nn(Cc2c(Cl)cccc2Cl)c(Cl)c1C(=O)O | 14.4
82 | CN(C)c1ccc(C(CNS(=O)(=O)c2ccc([N+](=O)[O-])cc2)N2CCOCC2)cc1 (stereo not shown) | -25.9
83 | C[n+]1ccn(CC(=O)c2cc(C(C)(C)C)c(O)c(C(C)(C)C)c2)c1.[Br-] | 18.2
84 | O=[N+]([O-])c1cc(/C=N/Nc2nc(N3CCOCC3)nc(N3CCOCC3)n2)ccc1Cl | 16.1
85 | O=C(N/N=C/c1cccnc1)c1ccc(CN2c3cccc4cccc(c34)S2(=O)=O)cc1 | 5.22
86 | Cc1ccccc1Nc1ncnc2c1cnn2C | 4.92
87 | O=C(Nc1ccc(S(=O)(=O)NC2=NCCCCC2)cc1)C1COc2ccccc2O1 (stereo not shown) | -6.86
88 | CCN(CC)c1nc2n(c(=O)n1)CCN2CC | -1.83
